Results published in the supplement of paper PMC10441789.
This is one part of the list. Antibody binding of pooled human sera (four to six donors per pool; dilution not stated) to peptides of the Trypanosoma cruzi antigen TSSA on microarrays. Quantile-normalised fluorescence in arbitrary units, mean of duplicate arrays; higher = more binding. No active / inactive call. The uninfected pools are read here as the healthy donors of the same country. The strongest signals lie near the top of the scale (about 60,000).

System: pooled sera of uninfected people, Colombia
Assay: antibody binding signal (normalised fluorescence) (arbitrary fluorescence units); higher = stronger serum antibody binding to peptide
Protocol: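 Microarray of 15-residue peptides over residues 30-55 of Trypanosoma cruzi TSSAII, each with 1 to 10 substitutions at naturally variable positions, probed with one serum pool per country.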

Sequence	antibody binding signal
SGTEKKTAAGEAPSP	1800
KTATGGAPSPSGASS	110
SGKDNKPATGETPSQ	291
ENKPATGETPSPSGA	115
KPAAGEAPSQSGASS	126
KEKKPATGGAPSQSG	139
SGKDKKPAAGETPSP	1210
GTDNKTATGGTPSPS	582
GKDNKPATGGAPSQP	173
PPSGTENKAAAGGAP	829
TPPSGTENKPAAGGA	784
TDKKAATGETPSQPG	455
TEKKAATGGAPSPPG	1150
SGKENKTATGGAPSQ	304
TENKAATGGTPSQPG	290
DKKPATGGAPSQSGA	131
KAATGEAPSPSGASS	114
SGKENKTAAGGTPSP	402
KDNKTAAGETPSPPG	237
DKKPAAGGAPSQSGA	124

Sequence	antibody binding signal
NKTATGETPSQPGAS	465
TPPSGKDKKTATGET	272
SSTPPSGTDKKTAAG	141
KPATGETPSPSGASS	156
SGTENKTAAGGTPSP	557
TDNKPATGETPSQSG	133
GKDNKPATGETPSQP	316
PPSGTEKKPATGETP	435
TEKKAATGETPSPPG	761
KDKKTATGEAPSPPG	94.6
DNKPAAGGAPSPSGA	226
GTENKTAAGEAPSPP	253
SGKENKAAAGGAPSP	312
GTDKKTATGGTPSPP	524
ENKTATGGAPSPPGA	147
KEKKTATGEAPSQSG	81.2
NKPAAGGTPSQSGAS	480
PPSGTDNKAATGETP	182
KENKTAAGGTPSQSG	95
PSGTDNKPATGGTPS	546
